From the supplement of paper PMC3334620 come the findings set out here.

Over roughly 33,000 sequences, “E-score (-0.5 to 0.5)” has its median near -0.012; the highest 2% begin near 0.29. This is one part of the list.

The experiment addresses T1, Ybr033w (UniProt P38073).
T1 sequence: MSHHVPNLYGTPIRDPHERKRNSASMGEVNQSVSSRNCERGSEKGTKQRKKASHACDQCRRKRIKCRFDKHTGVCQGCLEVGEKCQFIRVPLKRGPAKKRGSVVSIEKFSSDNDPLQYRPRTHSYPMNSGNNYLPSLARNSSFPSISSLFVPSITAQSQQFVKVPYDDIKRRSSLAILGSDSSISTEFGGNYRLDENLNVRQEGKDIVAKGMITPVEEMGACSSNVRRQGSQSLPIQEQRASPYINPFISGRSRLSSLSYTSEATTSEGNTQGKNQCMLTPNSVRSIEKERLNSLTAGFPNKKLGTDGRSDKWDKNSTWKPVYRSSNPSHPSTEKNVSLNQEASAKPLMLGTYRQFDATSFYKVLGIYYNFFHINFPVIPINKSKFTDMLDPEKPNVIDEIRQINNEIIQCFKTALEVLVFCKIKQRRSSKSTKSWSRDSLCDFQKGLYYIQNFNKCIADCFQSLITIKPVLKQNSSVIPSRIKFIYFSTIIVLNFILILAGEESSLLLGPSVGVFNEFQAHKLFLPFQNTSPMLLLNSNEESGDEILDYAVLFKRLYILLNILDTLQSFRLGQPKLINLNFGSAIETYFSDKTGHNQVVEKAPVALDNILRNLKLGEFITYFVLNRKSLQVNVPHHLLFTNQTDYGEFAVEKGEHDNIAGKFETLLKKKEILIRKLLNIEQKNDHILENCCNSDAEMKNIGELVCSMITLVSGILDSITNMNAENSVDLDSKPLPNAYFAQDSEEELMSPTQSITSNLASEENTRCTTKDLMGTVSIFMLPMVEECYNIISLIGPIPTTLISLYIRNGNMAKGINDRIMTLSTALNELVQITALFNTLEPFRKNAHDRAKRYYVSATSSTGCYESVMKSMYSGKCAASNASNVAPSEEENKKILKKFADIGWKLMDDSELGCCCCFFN
Description: PBM E-score (8-mer binding enrichment) (E-score (-0.5 to 0.5)); higher = stronger / more preferred TF binding; most listed sequences are background and not binding sites. The note with it: protein concentration: 200 nM; construct: GST-full length. How it is done: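 Universal 'all 10-mer' protein binding microarrays (Agilent AMADID 015681) probed with GST-tagged S. cerevisiae TFs (full-length or DBD) made by in vitro transcription/translation (PURExpress), about 100-200 nM. Bound TF was detected with fluorescent anti-GST. Each ungapped 8-mer (which stands for itself and its reverse complement) is scored by the PBM enrichment score (E-score), a modified Wilcoxon-Mann-Whitney statistic from -0.5 to +0.5, computed with the Universal PBM Analysis Suite. Scale: above 0.35 generally sequence-specific binding.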
As for ACTCTAGG, the “PBM E-score” value is -0.231.

On to ACTCACCT, for which the “PBM E-score” value is -0.0796.

As for AAAGAGCA, the “PBM E-score” value is 0.122.

On to ACAGAGTC, for which the “PBM E-score” value was -0.176.

With GTTACCAA, the “PBM E-score” value was found to be 0.133.

As for CGGGACAG, the “PBM E-score” value is -0.0324.

For the sequence AGCGCCAA, the “PBM E-score” value was 0.026.

For the sequence GAGTTTCC, the “PBM E-score” value worked out at 0.0638.

For the sequence GTTGCTCA, the “PBM E-score” value was -0.0343.

Regarding GTGCCAGA, the “PBM E-score” value was -0.287.

For the sequence GGTATGCA, the “PBM E-score” value was -0.162.

Regarding CGGTATAC, the “PBM E-score” value was -0.241.

For AGAGGCCT, the “PBM E-score” value is -0.203.

On to AAGGTTGC, for which the “PBM E-score” value is -0.0626.

For the sequence ATCGATGG, the “PBM E-score” value came out at 0.0993.

CGCTTGGA: the “PBM E-score” value was -0.0712.

Turning to CAGTATGC, the “PBM E-score” value was -0.0666.

Regarding AGTGTAAA, the “PBM E-score” value amounted to 0.0244.

Regarding TATCTCGA, the “PBM E-score” value was 0.0179.

On to GCCTCACC, for which the “PBM E-score” value was -0.234.

For GGCTCGAC, the “PBM E-score” value is -0.1.

As for AAATCTAA, the “PBM E-score” value amounted to 0.215.

Regarding AGTTTTGA, the “PBM E-score” value is 0.123.

Consider ACTCCAAC, for which the “PBM E-score” value came to 0.017.

As for GCAGCAAA, the “PBM E-score” value was -0.237.

ACTCTAAT: the “PBM E-score” value came to 0.233.

Regarding GATCCTCC, the “PBM E-score” value was -0.186.

GGGATTGA: the “PBM E-score” value is -0.148.

For the sequence CACGTGTC, the “PBM E-score” value was -0.15.

As for GGGCCCAA, the “PBM E-score” value is -0.167.

Take CGGGGGGC: the “PBM E-score” value was -0.436.

For the sequence CTCGGCGA, the “PBM E-score” value was -0.103.

For the sequence AAAGGAAA, the “PBM E-score” value was 0.303.

With ATGTAACA, the “PBM E-score” value is 0.226.

Turning to GTGTTTCA, the “PBM E-score” value came to 0.0694.

With AGGAAGGC, the “PBM E-score” value was -0.17.

GCTATAAC: the “PBM E-score” value is 0.0463.

Turning to GCCTGAAC, the “PBM E-score” value is -0.214.

CTTCAGAA: the “PBM E-score” value is -0.028.

As for CCCTACGC, the “PBM E-score” value is -0.166.

CCCCACCC: the “PBM E-score” value is 0.0112.

Regarding GGGCCACC, the “PBM E-score” value is -0.197.

Take CAATGTCC: the “PBM E-score” value is -0.0195.

Take ATCAGCCC: the “PBM E-score” value was -0.027.

Take CCATATTC: the “PBM E-score” value was found to be 0.047.

As for ACCTTCGG, the “PBM E-score” value is -0.0682.

Turning to AAGACAGG, the “PBM E-score” value worked out at 0.149.

As for ACCTCGAT, the “PBM E-score” value turned out to be 0.105.

On to CTTTATGA, for which the “PBM E-score” value was determined as 0.0552.

Regarding GAGAGTCC, the “PBM E-score” value is -0.228.

Consider AAAAGCGG, for which the “PBM E-score” value was -0.0853.

Regarding CCGCGAAG, the “PBM E-score” value is -0.02.

For the sequence AATTGTAG, the “PBM E-score” value stood at 0.201.

Consider CGACGCCA, for which the “PBM E-score” value was -0.218.

In the case of AGTGTCCA, the “PBM E-score” value worked out at 0.051.

Consider AGATCACG, for which the “PBM E-score” value worked out at 0.105.

Regarding GACAGTTA, the “PBM E-score” value came to 0.0195.

Consider AGAACTGC, for which the “PBM E-score” value was -0.133.

Regarding TCCGCGAA, the “PBM E-score” value stood at 0.0702.

On to ATCACGAA, for which the “PBM E-score” value worked out at 0.106.

Take TCACTAAA: the “PBM E-score” value stood at 0.164.

As for CGACTAAA, the “PBM E-score” value is -0.121.

For the sequence AGCACAGG, the “PBM E-score” value was -0.111.

On to AAATAAAG, for which the “PBM E-score” value turned out to be 0.281.

Consider CCAGGTGC, for which the “PBM E-score” value was -0.087.

Take AGGTCCCA: the “PBM E-score” value is -0.162.

As to AGTAGGTC, the “PBM E-score” value is -0.2.

For CGGGGGAA, the “PBM E-score” value is -0.164.

AGTAGGAA: the “PBM E-score” value was -0.0615.

With CAGGTCCG, the “PBM E-score” value was -0.187.

ACCTAGAC: the “PBM E-score” value was -0.178.

On to CCGGTCCA, for which the “PBM E-score” value is -0.223.

Consider AGCTTAGG, for which the “PBM E-score” value came out at 0.0442.

For CTAGTTCC, the “PBM E-score” value was found to be 0.0314.

Take CTCCAAAC: the “PBM E-score” value worked out at 0.134.

On to CTCACCTA, for which the “PBM E-score” value was found to be 0.0284.

As for CACGTTTA, the “PBM E-score” value came to 0.0437.

On to GTGAACCA, for which the “PBM E-score” value is 0.207.

On to TACTCCTA, for which the “PBM E-score” value turned out to be 0.00987.

GGTGTGCA: the “PBM E-score” value is -0.25.

Turning to ACGTACAT, the “PBM E-score” value came to 0.182.

Regarding ATTGGTGG, the “PBM E-score” value came to 0.113.

As for GTCATAGA, the “PBM E-score” value is 0.0405.

For CCGTGAAG, the “PBM E-score” value is -0.202.

For the sequence CTTTCTGC, the “PBM E-score” value is -0.171.

With GTTCTTAA, the “PBM E-score” value was 0.0938.
